In the antibiotic and cytotoxicity screens of Wong et al. (2023) one finds cytotoxicity call data, which are given here for 40 compounds.

The list shows a part of the results.

The experiment relates to HSkMC (human skeletal muscle cells). Briefly: cytotoxicity call (relative viability < 0.9). The note with it: 10 µM.
As to `Cc1noc(C)c1S(=O)(=O)Nc1cccc2c1O[C@@H](CN(C)Cc1ccccc1)[C@@H](C)CN([C@H](C)CO)C2=O`, the cytotoxicity call was “inactive”.

`C[C@@H]1CN([C@@H](C)CO)C(=O)c2cc(NC(=O)Nc3ccc4c(c3)OCO4)ccc2O[C@@H](C)CCCCO[C@@H]1CN(C)C(=O)C1CCCCC1`: the cytotoxicity call was “inactive”.

For the compound `COc1ccc(CN(C)C[C@@H]2OCCCC[C@H](C)Oc3ccc(NC(=O)c4ccncc4)cc3C(=O)N([C@@H](C)CO)C[C@H]2C)cc1`, the cytotoxicity call was “inactive”.

Consider `COc1ccc(NC(=O)Nc2ccc3c(c2)C(=O)N([C@@H](C)CO)C[C@@H](C)[C@@H](CN(C)Cc2ccc(Cl)c(Cl)c2)OCCCC[C@@H](C)O3)cc1`, for which the cytotoxicity call was “inactive”.

With `O=C([C@@H]1[C@@H](CO)[C@@H]2Cn3c(cccc3=O)[C@@H]2N1C(=O)C1CCCC1)N1CCOCC1`, the cytotoxicity call is “inactive”.

Regarding `O=C(C[C@@H]1CC[C@@H]2[C@H](COC[C@H](O)CN2C(=O)C2CC2)O1)NCc1ccncc1`, the cytotoxicity call was “inactive”.

For `CN1CCN(C(=O)C[C@H]2CC[C@H]3[C@@H](COC[C@H](O)CN3C(=O)C3CCOCC3)O2)CC1`, the cytotoxicity call is “inactive”.

On to `COc1ccc2c3c(n(c2c1)C)[C@@H](CO)N(C[C@]13CCN(CC1)C(=O)Nc1cccc(c1)F)C(=O)CN1CCOCC1`, for which the cytotoxicity call is “inactive”.

Turning to `Cc1ccc(S(=O)(=O)N(C)C[C@H]2Oc3c(NC(=O)c4ccncc4)cccc3C(=O)N([C@H](C)CO)C[C@H]2C)cc1`, the cytotoxicity call is “inactive”.

With `C[C@@H]1CN([C@@H](C)CO)C(=O)c2cc(NC(=O)C3CCCCC3)ccc2O[C@@H](C)CCCCO[C@@H]1CN(C)Cc1ccccc1`, the cytotoxicity call is “inactive”.

With `COc1ccc(NC(=O)Nc2ccc3c(c2)C(=O)N([C@@H](C)CO)C[C@@H](C)[C@@H](CN(C)C(=O)Nc2ccc4c(c2)OCO4)OCCCC[C@@H](C)O3)cc1`, the cytotoxicity call is “inactive”.

For the compound `CC(=O)N1C[C@@H](NC(=O)c2nccn2C)[C@@H]2OCCC[C@@H]21`, the cytotoxicity call is “inactive”.

For the compound `C[C@@H]1CN([C@H](C)CO)C(=O)CCCn2nncc2CO[C@@H]1CN(C)S(C)(=O)=O`, the cytotoxicity call was “inactive”.

With `Cc1cc([N+](=O)[O-])nn1CC(=O)NC(C)C`, the cytotoxicity call is “inactive”.

As for `COc1ccc2c3c([nH]c2c1)[C@@H](CO)N(C[C@]13CN(C1)C(=O)Cc1cccnc1)S(=O)(=O)c1ccc(cc1)C`, the cytotoxicity call is “inactive”.

In the case of `C[C@H](CO)N1C[C@H](C)[C@H](CN(C)Cc2ccc(C(F)(F)F)cc2)Oc2ccc(NC(=O)Nc3ccc4c(c3)OCO4)cc2CC1=O`, the cytotoxicity call was “inactive”.

As for `COc1ccc(NC(=O)N(C)C[C@H]2Oc3ccc(NS(C)(=O)=O)cc3C(=O)N([C@@H](C)CO)C[C@@H]2C)cc1`, the cytotoxicity call is “inactive”.

As to `C[C@H](CO)N1C[C@H](C)[C@H](CN(C)S(=O)(=O)c2cn(C)cn2)Oc2ccc(NC(=O)C3CC3)cc2C1=O`, the cytotoxicity call is “inactive”.

Consider `O=c1c(O[C@@H]2O[C@H](CO)[C@@H](O)[C@H](O)[C@H]2O)c(-c2ccc(O)cc2)oc2cc(O)cc(O)c12`, for which the cytotoxicity call was “inactive”.

`FC(F)(Cl)C(F)(F)Cl`: the cytotoxicity call is “inactive”.

On to `COc1ccccc1CNC(=O)C[C@H]1C[C@@H]2c3cc(NC(=O)C4CCOCC4)ccc3O[C@@H]2[C@H](CO)O1`, for which the cytotoxicity call is “inactive”.

On to `Cn1nc2c(c1N)CCC2`, for which the cytotoxicity call was “inactive”.

`C[C@H]1CN([C@@H](C)CO)C(=O)c2cccc(NC(=O)C3CCCCC3)c2O[C@@H]1CN(C)C(=O)Nc1ccc(C(F)(F)F)cc1`: the cytotoxicity call was “inactive”.

Regarding `CCS(=O)(=O)Nc1ccc2c(c1)C(=O)N(C)[C@H]1CC[C@@H](CC(=O)NCCCN3CCOCC3)O[C@H]1CO2`, the cytotoxicity call is “inactive”.

Turning to `CC(C)=CCOc1cc(C)cc2oc(=O)cc(-c3ccccc3)c12`, the cytotoxicity call is “inactive”.

Take `COC(=O)C[C@H]1CC[C@H]2[C@@H](COC[C@@H](O)CN2S(=O)(=O)c2ccc(F)cc2)O1`: the cytotoxicity call is “inactive”.

As for `C[C@@H]1CN([C@H](C)CO)S(=O)(=O)c2ccc(C#Cc3ccccc3)cc2O[C@@H]1CN(C)C(=O)Cc1ccccn1`, the cytotoxicity call is “inactive”.

For `Cc1noc(C)c1NC(=O)Nc1cccc2c1O[C@@H](CN(C)Cc1ccc(Oc3ccccc3)cc1)[C@@H](C)CN([C@@H](C)CO)C2=O`, the cytotoxicity call is “inactive”.

`Cc1noc(C)c1NC(=O)N[C@@H]1C=C[C@H](CC(=O)NCCCN(C)C)O[C@H]1CO`: the cytotoxicity call was “inactive”.

For the compound `COc1ccc2c3c([nH]c2c1)[C@H](CO)N(C[C@]13CCN(CC1)C(=O)Nc1cccc(c1)F)C(=O)c1ccc(cc1)F`, the cytotoxicity call was “inactive”.

In the case of `CNC[C@@H]1OCCCC[C@@H](C)Oc2ccc(NS(=O)(=O)c3c(C)noc3C)cc2C(=O)N([C@@H](C)CO)C[C@H]1C`, the cytotoxicity call is “inactive”.

As to `CC(C)CC#Cc1ccc2c(c1)O[C@H](CN(C)S(=O)(=O)c1ccc(F)cc1)[C@H](C)CN([C@@H](C)CO)S2(=O)=O`, the cytotoxicity call was “inactive”.

In the case of `Cc1ccc(S(=O)(=O)N(C)C[C@H]2OCCCC[C@H](C)Oc3ccc(NS(=O)(=O)c4ccc(Cl)cc4)cc3C(=O)N([C@@H](C)CO)C[C@@H]2C)cc1`, the cytotoxicity call is “inactive”.

In the case of `Cc1ccc(S(=O)(=O)N(C)C[C@@H]2Oc3c(NC(=O)Nc4ccc(C(F)(F)F)cc4)cccc3C(=O)N([C@@H](C)CO)C[C@@H]2C)cc1`, the cytotoxicity call was “inactive”.

Take `Cc1noc(C)c1S(=O)(=O)N(C)C[C@@H]1OCc2cn(nn2)CCCC(=O)N([C@@H](C)CO)C[C@H]1C`: the cytotoxicity call is “inactive”.

For `NC(CO)(CO)CO.O=C(c1ccccc1)c1ccc2n1CCC2C(=O)O` (stereo not given), the cytotoxicity call was “inactive”.

In the case of `C[C@H](CO)N1C[C@H](C)[C@H](CN(C)C(=O)CCCN(C)C)OCCCC[C@H](C)Oc2ccc(NS(=O)(=O)c3cn(C)cn3)cc2C1=O`, the cytotoxicity call was “inactive”.

Consider `COc1ccccc1NC(=O)N(C)C[C@H]1Oc2ncc(C#CC(C)C)cc2C(=O)N([C@@H](C)CO)C[C@@H]1C`, for which the cytotoxicity call is “inactive”.

For `C[C@@H]1CN([C@H](C)CO)C(=O)c2cc(NS(=O)(=O)c3ccccc3)ccc2O[C@@H](C)CCCCO[C@@H]1CN(C)C(=O)C1CCCCC1`, the cytotoxicity call was “inactive”.

In the case of `C[C@@H]1CN([C@@H](C)CO)C(=O)Cc2cc(NC(=O)Cc3cn(C)c4ccccc34)ccc2O[C@@H]1CN(C)CC1CCCCC1`, the cytotoxicity call is “inactive”.
